The values that follow come from paper PMC11995724, “Antibiotic target discovery by integrated phenotypic and activity-based profiling of electrophilic fragments” (Cell chemical biology, 2025).

About 75 (2%) of roughly 3,200 compounds showed an effect of 50% or more. The list shows a part of the results.

The experiment has as its system T1, S. aureus MSSA476.
T1 construct: MSSA476
More on the design: species or system S. aureus MSSA476 (TSB) or V. cholerae SAD30 (LB); 384-well bacterial growth screen at 25 uM, OD600 relative to DMSO control. The conditions noted are these: relative growth, OD600, TSB; 25 µM; inhibitor.
With `C=CC(=O)N(C)CC(=O)N1CCN(C(=O)C2CCCCC2)CC1` [3-O10, N-[2-(4-cyclohexanecarbonylpiperazin-1-yl)-2-oxoethyl]-N-methylprop-2-enamide], the “% of control remaining” value is on record as 98.5633%.

`C=CC(=O)N1CCC(C(=O)Nc2ccc3c(c2)CCN3C(N)=O)CC1` [3-E16, 5-[1-(prop-2-enoyl)piperidine-4-amido]-2,3-dihydro-1H-indole-1-carboxamide]: the “% of control remaining” value turned out to be 96.8219%.

In the case of `C=CC(=O)N1CCC(C(=O)NCc2ccccc2-n2cccn2)CC1` [3-N03, 1-(prop-2-enoyl)-N-{[2-(1H-pyrazol-1-yl)phenyl]methyl}piperidine-4-carboxamide], the “% of control remaining” value is on record as 97.1702%.

As for `CC(Cl)C(=O)Nc1cccc(S(=O)(=O)N(C)C)c1` (centres unmarked) [5-A07, 2-chloro-N-[3-(dimethylsulfamoyl)phenyl]propanamide], the “% of control remaining” value is 96.9035%.

As to `CC(Cl)C(=O)Nc1ccccc1C#N` (centres unmarked) [6-A11, 2-chloro-N-(2-cyanophenyl)propanamide], the “% of control remaining” value came out at 83.6585%.

In the case of `C=CC(=O)N1CCC(CC(C)(C)C)C1` (centres unmarked) [2-O19, 1-[3-(2,2-dimethylpropyl)pyrrolidin-1-yl]prop-2-en-1-one], the “% of control remaining” value was found to be 113.838%.

Turning to `C=CC(=O)NCc1ccsc1-n1cccc1` [1-K08, N-{[2-(1H-pyrrol-1-yl)thiophen-3-yl]methyl}prop-2-enamide], the “% of control remaining” value was found to be 111.824%.

As for `C=CC(=O)N1CCC(Cc2nc3ccc(F)cc3o2)CC1` [3-O07, 1-{4-[(6-fluoro-1,3-benzoxazol-2-yl)methyl]piperidin-1-yl}prop-2-en-1-one], the “% of control remaining” value came out at 87.4184%.

Regarding `C=CC(=O)N1CC(S(=O)(=O)N2CCOCC2)C1` [2-A16, 1-[3-(morpholine-4-sulfonyl)azetidin-1-yl]prop-2-en-1-one], the “% of control remaining” value worked out at 154.221%.

For `Cc1nn(C)c(C)c1NC(=O)C(C)Cl` (centres unmarked) [6-C07, 2-chloro-N-(1,3,5-trimethyl-1H-pyrazol-4-yl)propanamide], the “% of control remaining” value is recorded as 84.6829%.

`N#CC(=Cc1cnc(-c2ccccc2)nc1)C(=O)NCc1ccco1` [9-M14, 2-cyano-N-[(furan-2-yl)methyl]-3-(2-phenylpyrimidin-5-yl)prop-2-enamide]: the “% of control remaining” value is reported as 90.1873%.

With `N#CC(=Cc1cccc(Cl)c1)C(=O)NCc1ccccc1` [9-L13, N-benzyl-3-(3-chlorophenyl)-2-cyanoprop-2-enamide], the “% of control remaining” value worked out at 76.7041%.

Turning to `C=CC(=O)N(C)CC(=O)NC1CCCN(c2cc(C)nc(C)n2)C1` (centres unmarked) [3-A12, N-({[1-(2,6-dimethylpyrimidin-4-yl)piperidin-3-yl]carbamoyl}methyl)-N-methylprop-2-enamide], the “% of control remaining” value worked out at 162.995%.

`Cc1ccc(C(CNC(=O)C(C)Cl)N2CCOCC2)s1` (centres unmarked) [7-N13, 2-chloro-N-[2-(5-methylthiophen-2-yl)-2-(morpholin-4-yl)ethyl]propanamide]: the “% of control remaining” value is recorded as 81.3187%.

For the compound `Cc1ccc(-n2c(C)cc(C(=O)CCl)c2C)cc1F` [10-C06, 2-chloro-1-[1-(3-fluoro-4-methylphenyl)-2,5-dimethyl-1H-pyrrol-3-yl]ethan-1-one], the “% of control remaining” value is listed as -0.3125%.

As to `COc1cc(C=C(C#N)C(=O)Nc2ccc3c(c2)OCCO3)ccc1O` [8-N06, 2-cyano-N-(2,3-dihydro-1,4-benzodioxin-6-yl)-3-(4-hydroxy-3-methoxyphenyl)prop-2-enamide], the “% of control remaining” value was determined as 100.913%.

Take `COc1ccc(C(C)(C)C)cc1NC(=O)CCl` [4-C07, N-(5-tert-butyl-2-methoxyphenyl)-2-chloroacetamide]: the “% of control remaining” value was 102.525%.

On to `CC(Cl)C(=O)Nc1cccc(Cl)c1` (centres unmarked) [5-H22, 2-chloro-N-(3-chlorophenyl)propanamide], for which the “% of control remaining” value turned out to be 77.9599%.

For the compound `CCC1CN(CCn2cccn2)CCN1C(=O)C(C)Cl` (centres unmarked) [7-F07, 2-chloro-1-{2-ethyl-4-[2-(1H-pyrazol-1-yl)ethyl]piperazin-1-yl}propan-1-one], the “% of control remaining” value is 114.6%.

For `N#CC(=Cc1ccc(-c2cccc([N+](=O)[O-])c2)o1)C(=O)N1CCOCC1` [8-C07, 2-(morpholine-4-carbonyl)-3-[5-(3-nitrophenyl)furan-2-yl]prop-2-enenitrile], the “% of control remaining” value was 112.863%.

Regarding `NS(=O)(=O)c1ccc(CNC(=O)CCl)cc1` [4-P12, 2-chloro-N-[(4-sulfamoylphenyl)methyl]acetamide], the “% of control remaining” value stood at 97.1891%.

`Cc1cc(C=C(C#N)C(=O)Nc2nccs2)ccc1-n1cncn1` [9-J14, 2-cyano-3-[3-methyl-4-(1H-1,2,4-triazol-1-yl)phenyl]-N-(1,3-thiazol-2-yl)prop-2-enamide]: the “% of control remaining” value is 105.169%.

Take `C=CC(=O)NCC1(c2nc(-c3ccccc3)cs2)CCOCC1` [2-A11, N-{[4-(4-phenyl-1,3-thiazol-2-yl)oxan-4-yl]methyl}prop-2-enamide]: the “% of control remaining” value was determined as 120.453%.

Take `Cn1cc(NC(=O)CCl)c(C(=O)NC2CCC2)n1` [5-A22, 4-(2-chloroacetamido)-N-cyclobutyl-1-methyl-1H-pyrazole-3-carboxamide]: the “% of control remaining” value is given as 108.561%.

Consider `CC(Cl)C(=O)NCc1nc(-c2cccc(C#N)c2)c[nH]1` (centres unmarked) [6-F09, 2-chloro-N-{[4-(3-cyanophenyl)-1H-imidazol-2-yl]methyl}propanamide], for which the “% of control remaining” value is 86.7317%.

On to `C=CC(=O)Nc1cccc2ccccc12` [1-G10, N-(naphthalen-1-yl)prop-2-enamide], for which the “% of control remaining” value was determined as 100.923%.

Consider `Cc1ccc(NC(=O)CCl)cc1S(=O)(=O)N(C)C` [4-A09, 2-chloro-N-[3-(dimethylsulfamoyl)-4-methylphenyl]acetamide], for which the “% of control remaining” value was 89.5665%.

Consider `O=C(CCl)N(Cc1ccc(Cl)c([N+](=O)[O-])c1)c1ccccc1` [6-H06, 2-chloro-N-[(4-chloro-3-nitrophenyl)methyl]-N-phenylacetamide], for which the “% of control remaining” value is 8.195%.

Take `CCc1ccc(CC)c(C(=O)CCl)c1` [10-H14, 2-chloro-1-(2,5-diethylphenyl)ethan-1-one]: the “% of control remaining” value was found to be 125.625%.
